From ChEMBL document CHEMBL4888484, “Replenishing the malaria drug discovery pipeline: Screening and hit evaluation of the MMV Hit Generation Library 1 (HGL1) against asexual blood stage Plasmodium falciparum ,using a nano luciferase reporter read-out” (2022)
Screen size: about 150,000 compounds; about 540 (0.36%) showed an effect of 50% or more. Some of the results follow.

What follows are compounds tested on Plasmodium falciparum (assay: Primary screen in NF54 nanoGlo assay, in single point, at 2uM, 72h; a lower Z score goes with more inhibition). Details: timepoint 72 hour.
Format: functional, Erythrocyte

| SMILES | % Inhibition [%] | Z score |
| --- | --- | --- |
| CC(C)OCc1ccc(CNCc2c[nH]nc2-c2cccnc2)cc1 | -7 | 1.12 |
| C[C@H]1CCN(C(=O)c2ncoc2-c2ccco2)CC12CCC2 | 8 | -1.39 |
| C[C@H]1CCCCN1c1nc(-c2ccccc2)nc2nc(-c3ccccc3)oc12 | -14 | 1.86 |
| O=C(CCn1cnc(-c2ccccc2)c1-c1ccccc1)N[C@H]1CCS(=O)(=O)C1 | -3 | 0.64 |
| Cn1cc2c(n1)c(=O)n(Cc1ccc(F)cc1)c1nn(Cc3cccc(Cl)c3)c(=O)n21 | -2 | 0.3 |
| CC(=O)NCC(=O)N1CCC[C@H](c2[nH]ncc2-c2ccc(C)cc2)C1 | -10 | 1.44 |
| CCc1nc(COc2ccc(C(=O)NCCn3ccnc3)cc2)no1 | 4 | -0.39 |
| CN1CCO[C@H](C(=O)Nc2ccccc2N(C)C2CCCC2)C1 | 10 | -1.2 |
| O=C(CNCc1ccco1)Nc1ncc(Cc2cc(Cl)cc(Cl)c2)s1 | -16 | 2.17 |
| CCN(C[C@H]1COc2ccccc2O1)C(=O)NCc1csc(C)n1 | -12 | 1.85 |
| CCO[C@H]1COC[C@@H]1NC(=O)CCn1cc(C)cn1 | -6 | 0.58 |
| CN(Cc1ccc(-c2ccccc2)cc1)C(=O)c1cnc2c(cnn2C)c1O | -10 | 1.47 |
| Cc1cc(CN2CCCC[C@@H]2Cn2nc(C)nc2C)on1 | -12 | 1.59 |
| CS(=O)(=O)N1CCC(NC(=O)c2occc2-c2ccccc2)CC1 | 6 | -0.68 |
| CCOC(=O)c1nn[nH]c1[C@@H]1CCCN1C(=O)c1c(C)nsc1C | -12 | 1.29 |
| COc1ccc(C(=O)N2CC(C(=O)O)CCC2c2ccccc2)cc1 (stereo not drawn) | 35 | -1.17 |
| CC[C@@H](COc1ccccc1)NC(=O)CC1CCNCC1 | 9 | -1.66 |
| CC(C)NC(=O)Nc1ccc(N(C)C)c(CN(C(=O)c2ccccc2Cl)[C@@H](C)C(C)C)c1 | -7 | 1.29 |
| Cc1cc(C)cc(OCc2nnc(C(=O)Nc3cccc(C(=O)NC4CCCC4)c3)s2)c1 | -21 | 2.13 |
| CN1c2cc(Cl)ccc2C(=O)NC12CCN(C(=O)Nc1ccc(F)cc1F)CC2 | -10 | 1.28 |
| CCOC(=O)C1CCN(C(=O)c2snc3c(=O)n(C)c(=O)[nH]c23)CC1 | -8 | 1.25 |

| SMILES | % Inhibition [%] | Z score |
| --- | --- | --- |
| COc1ccc(-c2noc(Cn3c(=O)c4ccccc4n(CC(=O)Nc4cc(Cl)ccc4C)c3=O)n2)cc1 | 31 | -0.5 |
| CCOc1ccc(NC(=O)CCc2nc(N3CCOCC3)c3c(C)noc3n2)cc1 | -5 | 0.81 |
| CC(C)[C@@H](C(=O)NCCCOCCc1ccccc1)N1CCCS1(=O)=O | -8 | 0.92 |
| O=C1CCCc2cc(C(=O)N[C@H]3CCOC34CCOCC4)ccc2N1 | -2 | 0.29 |
| Cn1c(C(=O)N2CCNC(=O)[C@@H]2CCO)cc2cccc(Cl)c21 | -17 | 2.87 |
| O=C(O)c1ccc2[nH]c3c(c2c1)CCC3 | 2 | -0.25 |
| CCCOc1ccc(OCC(=O)NC2CCN(C(=O)c3ccc(OC)cc3OC)CC2)cc1 | -7 | 0.93 |
| c1ccc(O[C@@H]2CCN(c3nnc(C4CC4)n3CC3CC3)C2)cc1 | -12 | 2.38 |
| Cc1nn(-c2nnn[nH]2)c(C)c1-c1cc(NCc2ccccn2)nc2[nH]ccc12 | -2 | 0.38 |
| O=C(Cc1ccccc1)N1CCc2nc(N3CCCCC3)nc(Oc3ccc(F)cc3)c2C1 | -5 | 0.52 |
| COc1cc2c(cc1OC)[C@H](CCc1ccccc1)NCC2 | -10 | 1.3 |
| CC(CNC(=O)NC1CCOC1C)c1ccc(F)c(F)c1 (stereo not drawn) | -8 | 1.03 |
| COCc1ccccc1C(=O)O[C@H]1CC[C@H](NC(=O)OC(C)(C)C)CC1 | 2 | -0.26 |
| Cc1cc2ccccc2n1CC(=O)NOCc1ccccc1 | 6 | -0.92 |
| Fc1ccc(-c2nc(C3CCCCC3)[nH]c2-c2ccc(F)cc2)cc1 | -9 | 1 |
| O=C1NCC(=O)N2CCN(C(=O)c3ccc(Oc4ccccc4)o3)C[C@@H]12 | -24 | 3.18 |
| O=C(Nc1nncs1)N(Cc1cc(F)ccc1F)C1CCCC1 | -9 | 1.42 |
| Cc1cc(C)n(-c2nc(Nc3ccc(Cl)cc3)nc(Nc3ccc(Cl)cc3)n2)n1 | 44 | -7.01 |
| CN1C(=O)CN(C(=O)C2CC=CC2)c2ccccc21 | 3 | -0.55 |
| CCCn1nc(C2CCOCC2)nc1[C@H](O)C1CCCCC1 | 6 | -0.83 |
| COc1ccc(Cl)cc1N1CC[C@H](NC(=O)c2cc(C)n[nH]2)C1 | -2 | 0.27 |

| SMILES | % Inhibition [%] | Z score |
| --- | --- | --- |
| CC1(C)CC[C@H](CCNC(=O)Cn2nnc3c2CCCC3)OC1 | -8 | 1.09 |
| CCn1cc(S(=O)(=O)N(C)C)cn1 | -4 | 0.78 |
| Cc1n[nH]cc1NS(=O)(=O)c1c(C)nn(CC(C)C)c1C | -4 | 0.39 |
| O=C(CCc1c[nH]c2ccccc12)N1CCC2(CC1)C[C@@H](CCO)CCO2 | -5 | 0.97 |
| COC(=O)CNc1ccc(OC)cc1C(=O)OC | -40 | 4.71 |
| Cc1cc(NC(=O)c2cc(O)ncn2)[nH]n1 | -3 | 0.49 |
| CCNc1ncc(CN2C[C@@H]3NC(=O)c4ncccc4OCCn4cc(nn4)CO[C@H]3C2)cn1 | -27 | 3.4 |
| Cc1cc(CN(C)C[C@@H]2CC=CCC2)no1 | -10 | 0.92 |
| CCCc1nc(N2CCN(C)CC2)c2sc(=S)n(-c3ccccc3)c2n1 | -6 | 1.23 |
| CCc1noc(CC)c1CNc1ncnc2onc(C)c12 | 1 | -0.08 |
| CCCCN(C)CCNC(=O)N[C@H]1CCCC12CCOCC2 | -8 | 0.75 |
| O=C1c2ccccc2[C@@H](Nc2ccc3c(c2)OCCO3)N1c1ccc(Cl)cc1 | -12 | 1.84 |
| Cn1ncc2c(N)nc(N[C@H]3C[C@H](c4nnc(CO)n4C4CC4)C3)nc21 | 7 | -0.76 |
| CCn1nccc1C(=O)N1CCc2cc(F)cnc21 | -7 | 1.27 |
| CCC(CC)C(=O)N1CCC(Nc2ncnc3c2cnn3C)CC1 | 6 | -1.12 |
| CCc1ccc(CN(C)C(=O)[C@H]2CC(=O)N(C3CCCC3)C2)nc1 | -6 | 0.89 |
| CC1(C)NC(=O)N(Cc2ncnn2C2Cc3ccccc3C2)C1=O | -2 | 0.35 |
| COc1cc(C)nc(NCCCc2nnc3ccccn23)n1 | -23 | 2.67 |
| CCN(CC)c1ccc(C(=O)N2CCC(Cc3nncn3C)CC2)cc1 | -3 | 0.58 |
| CCN=C(NCc1csc(N(C)C)n1)NCc1sccc1C | 7 | -0.56 |
| CC(=O)c1c(O)cc(C)n(C2CCCCC2)c1=O | -7 | 1.41 |

| SMILES | % Inhibition [%] | Z score |
| --- | --- | --- |
| CCN(C(=O)CCCOc1ccccc1)c1ccccc1C | -14 | 1.88 |
| Cc1nn(C)c(N)c1C(=O)N(C1CCC1)C1CCC1 | 33 | -4.79 |
| CCCc1nc(-c2ccccc2)oc1CC(=O)Nc1ccc(Br)cc1F | 2 | -0.42 |
| CC(C)[C@H](NS(=O)(=O)c1cccnc1)c1ncnn1C | -5 | 0.74 |
| CCN(Cc1noc(C)n1)C(=O)Nc1cc(N2CCOCC2)ccc1Cl | 6 | -1.02 |
| CNC(=O)CN(C(=O)OC(C)(C)C)[C@H]1CCCC[C@@H]1NS(=O)(=O)C1CC1 | -5 | 0.66 |
| Cc1nc(C(C)(C)NC(=O)c2ccc(-c3ccccc3F)o2)no1 | -10 | 1.39 |
| Cc1c[nH]nc1C(=O)N(C)[C@H]1CCN(C(C)C)C1 | 4 | -0.73 |
| CC(=O)Nc1ccc(NC(=O)C2CCN(S(=O)(=O)c3cc4c(cc3C)NC(=O)CO4)CC2)cc1 | 1 | -0.16 |
| CS(=O)(=O)NC[C@H]1CCCN(c2nnc(C(F)(F)F)s2)C1 | -3 | 0.47 |
| Cc1ccc(S(=O)(=O)N2CCCC(=O)c3ccccc32)cc1 | 37 | -4.8 |
| CCOC(=O)c1ccc(NC(=O)CC2CCC2)cn1 | 3 | -0.29 |
| C[C@H](Nc1ccc(F)cc1C#N)c1cccc(-n2cncn2)c1 | 3 | -0.3 |
| O=C(N[C@@H]1C[C@@H](CO)OC1=O)OCc1ccccc1 | 11 | -1.69 |
| Cc1ccc(C)c(CN2CCC(CNC(=O)c3nc(-c4ccc(N(C)C)cc4)no3)CC2)c1 | -17 | 1.7 |
| CCc1ccccc1CN1CCN(Cc2ccncc2)[C@@H]2CS(=O)(=O)C[C@@H]21 | 1 | -0.19 |
| FC(F)(F)c1nccc(NCCc2cccs2)n1 | -8 | 0.81 |
| Cc1nc(N2CCCC2)c2c(C(=O)Nc3ccc(C(C)C)cc3)c(C)oc2n1 | 0 | 0.03 |
| CCN1CC(=O)N[C@@H]1c1ccc(C)s1 | -4 | 0.71 |
| COC(=O)[C@@H](NC(=O)Cc1cc(C)[nH]n1)C(C)(C)C | -8 | 1.05 |
| O=C(N[C@H]1CC12CCN(C(=O)C1CCOCC1)CC2)c1ccccc1 | -8 | 1 |
